Results: paper PMC9911399, “Two distinct binding modes provide the RNA-binding protein RbFox with extraordinary sequence specificity”
Substitutions are numbered along the chain they refer to; changes in the protein carry UniProt numbers. Some of the results follow.

T1: RBFOX1 RRM RbFoxmut (Fox-RRM*) (Homo sapiens, UniProt Q9NWB1 109-208, R118D;E147R;N151S;E152T)
T1 sequence: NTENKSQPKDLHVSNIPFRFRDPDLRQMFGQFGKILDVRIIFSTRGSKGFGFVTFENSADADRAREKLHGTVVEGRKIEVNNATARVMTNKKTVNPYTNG

B1: UUUCUGA (DNA:RNA)
RNA: GGGAGACCGGAAUUCAGAUUGUCCUUUCUGAUUAAAUCCCGUCGUAGCCACCA
DNA 1: CAATCTGAATTCCGGTCTCCC
DNA 2: TGGTGGCTACGACGGGATT
B2: GUUGCCG (DNA:RNA)
RNA: B1 RNA with U25G, C28G, U29C, G30C, A31G
DNA 1: CAATCTGAATTCCGGTCTCCC
DNA 2: TGGTGGCTACGACGGGATT
B3: UUGGACU (DNA:RNA)
RNA: B1 RNA with U27G, C28G, U29A, G30C, A31U
DNA 1: CAATCTGAATTCCGGTCTCCC
DNA 2: TGGTGGCTACGACGGGATT
B4: UGCGUGU (DNA:RNA)
RNA: B1 RNA with U26G, U27C, C28G, A31U
DNA 1: CAATCTGAATTCCGGTCTCCC
DNA 2: TGGTGGCTACGACGGGATT
B5: CGCAGUA (DNA:RNA)
RNA: B1 RNA with U25C, U26G, U27C, C28A, U29G, G30U
DNA 1: CAATCTGAATTCCGGTCTCCC
DNA 2: TGGTGGCTACGACGGGATT
B6: CCCACGU (DNA:RNA)
RNA: B1 RNA with U25C, U26C, U27C, C28A, U29C, A31U
DNA 1: CAATCTGAATTCCGGTCTCCC
DNA 2: TGGTGGCTACGACGGGATT
B7: CAGUCGC (DNA:RNA)
RNA: B1 RNA with U25C, U26A, U27G, C28U, U29C, A31C
DNA 1: CAATCTGAATTCCGGTCTCCC
DNA 2: TGGTGGCTACGACGGGATT
B8: UCAUAGA (DNA:RNA)
RNA: B1 RNA with U26C, U27A, C28U, U29A
DNA 1: CAATCTGAATTCCGGTCTCCC
DNA 2: TGGTGGCTACGACGGGATT
B9: UACCAAA (DNA:RNA)
RNA: B1 RNA with U26A, U27C, U29A, G30A
DNA 1: CAATCTGAATTCCGGTCTCCC
DNA 2: TGGTGGCTACGACGGGATT
B10: UAUAUGU (DNA:RNA)
RNA: B1 RNA with U26A, C28A, A31U
DNA 1: CAATCTGAATTCCGGTCTCCC
DNA 2: TGGTGGCTACGACGGGATT
B11: CAAGCUC (DNA:RNA)
RNA: GGGAGACCGGAAUUCAGAUUGUCCCAAGCUCUUAAAUCCCGUCGUAGCCACCA
DNA 1: CAATCTGAATTCCGGTCTCCC
DNA 2: TGGTGGCTACGACGGGATT
B12: CGCCCGU (DNA:RNA)
RNA: B11 RNA with A26G, A27C, G28C, U30G, C31U
DNA 1: CAATCTGAATTCCGGTCTCCC
DNA 2: TGGTGGCTACGACGGGATT
B13: GCAACAC (DNA:RNA)
RNA: B11 RNA with C25G, A26C, G28A, U30A
DNA 1: CAATCTGAATTCCGGTCTCCC
DNA 2: TGGTGGCTACGACGGGATT
B14: AUAGUUC (DNA:RNA)
RNA: B11 RNA with C25A, A26U, C29U
DNA 1: CAATCTGAATTCCGGTCTCCC
DNA 2: TGGTGGCTACGACGGGATT
B15: AGUUCGC (DNA:RNA)
RNA: B11 RNA with C25A, A26G, A27U, G28U, U30G
DNA 1: CAATCTGAATTCCGGTCTCCC
DNA 2: TGGTGGCTACGACGGGATT
B16: GAACCCG (DNA:RNA)
RNA: B11 RNA with C25G, G28C, U30C, C31G
DNA 1: CAATCTGAATTCCGGTCTCCC
DNA 2: TGGTGGCTACGACGGGATT
B17: UGAACUA (DNA:RNA)
RNA: B11 RNA with C25U, A26G, G28A, C31A
DNA 1: CAATCTGAATTCCGGTCTCCC
DNA 2: TGGTGGCTACGACGGGATT
B18: UCGACGG (DNA:RNA)
RNA: B1 RNA with U26C, U27G, C28A, U29C, A31G
DNA 1: CAATCTGAATTCCGGTCTCCC
DNA 2: TGGTGGCTACGACGGGATT
B19: GUACCCC (DNA:RNA)
RNA: B11 RNA with C25G, A26U, G28C, U30C
DNA 1: CAATCTGAATTCCGGTCTCCC
DNA 2: TGGTGGCTACGACGGGATT
B20: ACGCGCU (DNA:RNA)
RNA: B1 RNA with U25A, U26C, U27G, U29G, G30C, A31U
DNA 1: CAATCTGAATTCCGGTCTCCC
DNA 2: TGGTGGCTACGACGGGATT
B21: CGGCCGA (DNA:RNA)
RNA: B1 RNA with U25C, U26G, U27G, U29C
DNA 1: CAATCTGAATTCCGGTCTCCC
DNA 2: TGGTGGCTACGACGGGATT
B22: GUGGACU (DNA:RNA)
RNA: B11 RNA with C25G, A26U, A27G, C29A, U30C, C31U
DNA 1: CAATCTGAATTCCGGTCTCCC
DNA 2: TGGTGGCTACGACGGGATT
B23: CACGAGC (DNA:RNA)
RNA: B11 RNA with A27C, C29A, U30G
DNA 1: CAATCTGAATTCCGGTCTCCC
DNA 2: TGGTGGCTACGACGGGATT
B24: UGAGUAC (DNA:RNA)
RNA: B11 RNA with C25U, A26G, C29U, U30A
DNA 1: CAATCTGAATTCCGGTCTCCC
DNA 2: TGGTGGCTACGACGGGATT
B25: AAGCCGG (DNA:RNA)
RNA: B11 RNA with C25A, A27G, G28C, U30G, C31G
DNA 1: CAATCTGAATTCCGGTCTCCC
DNA 2: TGGTGGCTACGACGGGATT
B26: GAUCGCG (DNA:RNA)
RNA: B1 RNA with U25G, U26A, U29G, G30C, A31G
DNA 1: CAATCTGAATTCCGGTCTCCC
DNA 2: TGGTGGCTACGACGGGATT
B27: ACGGCUA (DNA:RNA)
RNA: B11 RNA with C25A, A26C, A27G, C31A
DNA 1: CAATCTGAATTCCGGTCTCCC
DNA 2: TGGTGGCTACGACGGGATT
B28: CGGCGAA (DNA:RNA)
RNA: B1 RNA with U25C, U26G, U27G, U29G, G30A
DNA 1: CAATCTGAATTCCGGTCTCCC
DNA 2: TGGTGGCTACGACGGGATT
B29: GGACAUG (DNA:RNA)
RNA: B11 RNA with C25G, A26G, G28C, C29A, C31G
DNA 1: CAATCTGAATTCCGGTCTCCC
DNA 2: TGGTGGCTACGACGGGATT
B30: UGACGGC (DNA:RNA)
RNA: B1 RNA with U26G, U27A, U29G, A31C
DNA 1: CAATCTGAATTCCGGTCTCCC
DNA 2: TGGTGGCTACGACGGGATT
B31: UAGCAAC (DNA:RNA)
RNA: B11 RNA with C25U, A27G, G28C, C29A, U30A
DNA 1: CAATCTGAATTCCGGTCTCCC
DNA 2: TGGTGGCTACGACGGGATT

These binders were tested against T1, RBFOX1 RRM RbFoxmut (Fox-RRM*) (assay: EMSA; HiTS-Eq, 1 nM pool, 10 min; buffer printed only for the single-RNA assays: 10 mM Tris pH 7.5, 150 mM NaCl, 3.4 mM EDTA, 0.001% NP-40, 30 C). Settings: tags: His6 N-terminal (pET28a); label: 5' 32P.
Method in brief: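 These values rest on relative association constants, computed from read-count changes of each RNA species versus the control reaction and normalised to the cognate motif. Reads came from free RNA recovered by 8% native PAGE after purified RbFox RRM (wild type or mutant) at increasing concentrations was equilibrated for 10 min in 50 µL with 1 nM of a 5′-radiolabelled pool with 7 randomized nucleotides and DNA-annealed flanks.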
B1 was tested, and the binding signal was 0.0685 KA relative to UGCAUGU.
B2 was tested, and the binding signal was 0.101 KA relative to UGCAUGU.
With B3 the binding signal was 0.0483 KA relative to UGCAUGU.
B4 was tested, and the binding signal was 0.26 KA relative to UGCAUGU.
With B5 the binding signal was 0.164 KA relative to UGCAUGU.
B6 was tested, and the binding signal was 0.081 KA relative to UGCAUGU.
With B7 the binding signal was 0.073 KA relative to UGCAUGU.
For B8, the binding signal was 0.114 KA relative to UGCAUGU.
For B9, the binding signal was 0.0879 KA relative to UGCAUGU.
B10 was tested, and the binding signal was 0.123 KA relative to UGCAUGU.
For B11, the binding signal was 0.0778 KA relative to UGCAUGU.
In the case of B12, the binding signal is reported as 0.0999 KA relative to UGCAUGU.
In the case of B13, the binding signal is reported as 0.0633 KA relative to UGCAUGU.
With B14 the binding signal was 0.103 KA relative to UGCAUGU.
B15 was tested, and the binding signal was 0.11 KA relative to UGCAUGU.
With B16 the binding signal was 0.0645 KA relative to UGCAUGU.
With B17 the binding signal was 0.0868 KA relative to UGCAUGU.
With B18 the binding signal was 0.0735 KA relative to UGCAUGU.
For B19, the binding signal was 0.0445 KA relative to UGCAUGU.
In the case of B20, the binding signal is reported as 0.107 KA relative to UGCAUGU.
With B21 the binding signal was 0.0762 KA relative to UGCAUGU.
For B22, the binding signal was 0.07 KA relative to UGCAUGU.
B23 was tested, and the binding signal was 0.0679 KA relative to UGCAUGU.
B24 was tested, and the binding signal was 0.0901 KA relative to UGCAUGU.
In the case of B25, the binding signal is reported as 0.0776 KA relative to UGCAUGU.
With B26 the binding signal was 0.11 KA relative to UGCAUGU.
In the case of B27, the binding signal is reported as 0.138 KA relative to UGCAUGU.
In the case of B28, the binding signal is reported as 0.0938 KA relative to UGCAUGU.
With B29 the binding signal was 0.314 KA relative to UGCAUGU.
For B30, the binding signal was 0.086 KA relative to UGCAUGU.
B31 was tested, and the binding signal was 0.0671 KA relative to UGCAUGU.
